In the supplement of paper PMC12217912:
Some of the results follow. Sequences were assembled here from the parent chain. Values near 0.05 are background.

B1: TEV protease; numbered along this chain (parent)
chain: MGESLFKGPRDYNPISSSICHLTNESDGHTTSLYGIGFGPFIITNKHLFRRNNGTLVVQSLHGVFKVKDTTTLQQHLVDGRDMIIIRMPKDFPPFPQKLKFREPQREERICLVTTNFQTKSMSSMVSDTSCTFPSGDGIFWKHWIQTKDGQCGSPLVSTRDGFIVGIHSASNFTNTNNYFTSVPKNFMELLTNQEAQQWVSGWRLNADSVLWGGHKVFMVKPEEPFQPVKEATQL

Variants of: B1
Assay: raw area under fraction-flipped curve 0-4 h after induction (AUC4h, not background-subtracted), DNA-recorder readout of cleavage of the substrate (dimensionless); higher = more cleavage of the substrate by the protease variant
Conditions: temperature: 34 °C; time window: 0-4 h after rhamnose induction
Protocol: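 In vivo DNA recorder in E. coli TOP10(DE3) ΔrhaA at 34 °C. Each TEVp single-site mutant (parent TEVp 0) is paired with a single-site variant of the 7-mer TEVs (canonical ENLYFQ|S). The substrate sits between flexible linkers in a Bxb1-sfGFP-TEVs-SsrA fusion, so cleavage stabilises Bxb1 and speeds flipping of a recombination array, read by NGS. The value is the raw area under the fraction-flipped curve over 0-4 h after rhamnose induction (AUC4h), with ≥20 reads per time point. It is not background-subtracted; inactive controls average about 0.047.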
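Also: Bxb1 expression induced with 0.2% (w/v) L-rhamnose at OD600 near 0.5, cultures sampled hourly, flipped fraction per protease–substrate barcode pair counted by paired-end Illumina sequencing.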

| Variant | area with substrate ENLAFQS | area with substrate ENLCFQS | area with substrate ENLDFQS | area with substrate ENLEFQS | area with substrate ENLFFQS | area with substrate ENLGFQS | area with substrate ENLHFQS | area with substrate ENLKFQS | area with substrate ENLLFQS | area with substrate ENLNFQS | area with substrate ENLPFQS | area with substrate ENLQFQS | area with substrate ENLRFQS | area with substrate ENLSFQS | area with substrate ENLVFQS | area with substrate ENLWFQS | area with substrate ENLIFQS | area with substrate ENLMFQS | area with substrate ENLTFQS |
| --- | --- | --- | --- | --- | --- | --- | --- | --- | --- | --- | --- | --- | --- | --- | --- | --- | --- | --- | --- |
| K185C | 0.0851 | 0.0768 | 0.0641 | 0.064 | 0.0716 | 0.0742 | 0.0597 | 0.0636 | 0.0748 | 0.0679 | 0.0787 | 0.0709 | 0.0676 | 0.0733 | 0.0677 | 0.0603 | – | – | – |
| T114R | 0.0651 | – | 0.0739 | – | 0.114 | 0.0781 | 0.069 | 0.0797 | 0.089 | 0.0502 | 0.0416 | 0.0764 | 0.0791 | 0.0601 | – | – | 0.0037 | – | – |
| S158Y | 0.0489 | 0.0615 | 0.0393 | 0.0521 | 0.0826 | – | 0.0519 | – | 0.0514 | 0.0593 | 0.0452 | – | 0.0511 | 0.0442 | 0.0635 | 0.052 | 0.061 | – | – |
| P94T | 0.0526 | 0.0547 | 0.0636 | 0.0642 | 0.0871 | 0.0584 | 0.06 | – | – | 0.0676 | – | 0.0854 | 0.0732 | – | – | – | – | – | – |
| F226Q | 0.0651 | – | – | 0.0686 | 0.0971 | 0.0593 | 0.0805 | 0.0786 | – | 0.084 | – | 0.0724 | – | 0.0583 | 0.0984 | 0.0832 | – | – | – |
| A196D | 0.0637 | 0.0795 | 0.047 | 0.07 | 0.082 | 0.0555 | 0.0526 | 0.0799 | 0.0818 | 0.0816 | 0.0607 | 0.0636 | 0.0693 | 0.0578 | – | – | – | – | – |
| G136D | 0.063 | 0.0608 | 0.0611 | 0.0671 | 0.0679 | 0.0767 | – | 0.0615 | 0.0898 | 0.0703 | 0.0618 | 0.0727 | 0.0652 | 0.0536 | – | – | – | 0.066 | 0.0557 |
| Q59G | 0.068 | 0.0599 | 0.0523 | 0.0479 | – | – | 0.0678 | 0.0849 | – | 0.0636 | 0.0371 | – | – | – | 0.0813 | 0.0547 | 0.0844 | – | – |
| F173H | 0.0412 | 0.0678 | 0.0682 | 0.0503 | 0.0715 | 0.0652 | 0.072 | 0.0658 | 0.0626 | 0.0632 | 0.0633 | 0.0722 | 0.0726 | 0.0523 | 0.0597 | – | 0.0665 | 0.0559 | 0.0627 |
| S26R | 0.0574 | 0.0781 | 0.0484 | 0.0774 | 0.0656 | – | 0.0582 | – | 0.0548 | 0.0605 | 0.0677 | – | – | – | – | 0.0529 | 0.0672 | – | – |
| N177P | 0.0605 | – | 0.0702 | 0.0581 | 0.032 | – | 0.0668 | – | 0.0658 | 0.066 | 0.067 | – | – | 0.0648 | 0.0576 | 0.0678 | – | 0.0708 | 0.062 |
| H29T | 0.0646 | 0.0754 | 0.0591 | – | 0.0984 | 0.0673 | 0.0402 | 0.0853 | – | 0.0685 | 0.061 | 0.0848 | – | 0.0939 | 0.0821 | 0.0591 | 0.0452 | – | – |
| F95A | 0.0476 | 0.0691 | 0.05 | 0.0586 | 0.084 | – | – | 0.0746 | 0.0487 | 0.131 | – | 0.0511 | 0.0824 | 0.0482 | 0.055 | 0.0947 | – | – | – |
